Test results published in PubChem BioAssay AID504339 (National Center for Advancing Translational Sciences (NCATS), 2011).
Out of some 390,000 compounds screened, about 17,000 (4.4%) were called active. The shares of active, inactive and inconclusive entries below differ from those in the screen. The call rests on the fitted dose curve; in most records, active means well fitted inhibition curve with a large enough effect; inconclusive means small, poorly fitted or top-dose-only effect; inactive means no such curve, though single readings can be large or run the other way. Where the call is inconclusive, the potency comes from a doubtful curve fit.
Further: nearly all actives have a fitted effect of over 50% in size.
On the % scale 0 is the no-effect control and ±100 the full control effect; potency means the concentration at half of the fitted maximal effect; tags describe the fitted curve by direction and shape.

The compounds below were run against Lysine-specific demethylase 4A (Homo sapiens) (UniProt O75164) (assay: qHTS Assay for Inhibitors of JMJD2A-Tudor Domain). Details: AlphaScreen JMJD2A-Tudor / H3K4me3 peptide binding; activity change, negative = inhibition: at 114 µM (top of the series).
UniProt O75164, sequence (O75164 whole entry, looked up, the tested form may be a part): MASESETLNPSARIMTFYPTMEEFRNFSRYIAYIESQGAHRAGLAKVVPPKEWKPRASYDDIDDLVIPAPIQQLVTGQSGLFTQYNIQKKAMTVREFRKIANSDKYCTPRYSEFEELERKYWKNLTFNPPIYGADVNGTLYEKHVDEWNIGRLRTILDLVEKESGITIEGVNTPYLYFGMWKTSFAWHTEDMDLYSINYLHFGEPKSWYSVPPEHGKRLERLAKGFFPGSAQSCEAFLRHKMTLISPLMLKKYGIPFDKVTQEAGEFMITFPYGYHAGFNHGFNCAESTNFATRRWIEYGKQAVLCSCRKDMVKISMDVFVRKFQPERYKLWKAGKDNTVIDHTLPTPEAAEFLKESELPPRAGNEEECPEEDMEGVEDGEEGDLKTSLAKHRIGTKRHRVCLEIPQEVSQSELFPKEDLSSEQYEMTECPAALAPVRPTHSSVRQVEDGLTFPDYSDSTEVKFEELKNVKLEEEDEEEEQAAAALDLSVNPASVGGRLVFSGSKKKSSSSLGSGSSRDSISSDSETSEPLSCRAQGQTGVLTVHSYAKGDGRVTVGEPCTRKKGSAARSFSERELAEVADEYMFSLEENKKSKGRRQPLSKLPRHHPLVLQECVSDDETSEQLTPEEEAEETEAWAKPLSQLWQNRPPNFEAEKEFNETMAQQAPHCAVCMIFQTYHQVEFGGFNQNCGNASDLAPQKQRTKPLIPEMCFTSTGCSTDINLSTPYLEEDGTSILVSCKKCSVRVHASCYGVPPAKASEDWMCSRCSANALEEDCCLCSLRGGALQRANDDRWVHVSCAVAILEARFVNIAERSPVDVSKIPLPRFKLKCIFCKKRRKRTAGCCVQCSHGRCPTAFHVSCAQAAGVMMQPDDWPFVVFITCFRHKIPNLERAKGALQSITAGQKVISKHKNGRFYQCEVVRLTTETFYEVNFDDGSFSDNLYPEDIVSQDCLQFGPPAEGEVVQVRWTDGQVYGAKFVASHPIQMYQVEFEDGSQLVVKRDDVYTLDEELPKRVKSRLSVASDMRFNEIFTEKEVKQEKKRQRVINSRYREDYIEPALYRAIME
In the case of `O=C1CC(c2nnc(Cc3ccc(F)cc3Cl)o2)CN1c1ccccc1` (stereo not given), the Potency is reported as “inactive”.
For `O=C(CSc1ccc(-c2ccco2)nn1)N1CCCCCC1`, the Potency was inconclusive: 79.4 µM [inhibitor, partial curve].
For `O=C(CN1C(=O)COc2ccc(S(=O)(=O)N3CCCC3)cc21)N1CCN(c2ccc(F)cc2)CC1`, the Potency was “inactive”.
`Cc1nc(N)sc1N=Nc1ccc(F)cc1` was tested, and the Potency was inconclusive: 50.1 µM [inhibitor, partial curve].
`CCOC(=O)c1ccc(N2C(=O)c3n[nH]c(-c4ccco4)c3C2c2ccc(O)c(OCC)c2)cc1` (stereo not given) was tested, and the Potency was inconclusive: 11.2 µM [inhibitor, full curve, poor fit].
With `COC(=O)c1sc(NC(=O)COc2ccc(OC)cc2)nc1C` the Potency was “inactive”.
For `Cc1noc(NS(=O)(=O)c2ccc(NC(=O)CSc3ncccn3)cc2)c1C`, the Potency was “inactive”.
For `C=CCn1c(C)cc(C(=O)COc2ccc(C)nc2[N+](=O)[O-])c1C`, the Potency was inconclusive: 56.2 µM [inhibitor, partial curve].
With `Cc1ccc(S(=O)(=O)N2CCOCC2)cc1NC(=O)CSc1nnnn1C1CCCC1` the Potency was “inactive”.
For `Cc1ccc(C(=O)CSc2cc(C)[nH]c(=O)n2)cc1`, the Potency was inconclusive: 63.1 µM [inhibitor, partial curve, poor fit].
With `CN(C)c1ccc(CNC(=O)c2cnc3sc(N4CCOCC4)nn3c2=O)cc1` the Potency was inconclusive: 89.1 µM [inhibitor, partial curve].
For `CC(=O)c1ccc(NC(=O)CSc2ccc(-c3cccs3)nn2)cc1`, the Potency was inconclusive: 63.1 µM [inhibitor, partial curve].
With `CCOC(=O)CC1(NC(=O)C2CCC(=O)N(Cc3ccccc3F)C2)CCCCC1` (stereo not given) the Potency was inconclusive: 15.8 µM [inhibitor, full curve, poor fit].
For `CN(C)c1ccc(S(=O)(=O)NCC(=O)N2CCN(c3ccccc3)CC2)cc1[N+](=O)[O-]`, the Potency was inconclusive: 56.2 µM [inhibitor, partial curve].
With `CC(=O)Nc1nc2n(n1)C(c1ccc(F)cc1)C=C(c1ccccc1)N2` (stereo not given) the Potency was inconclusive: 89.1 µM [inhibitor, single point].
`O=C(NN1C(=O)/C(=C\c2cccnc2)SC1=S)C(c1ccccc1)c1ccccc1` was tested, and the Potency was inconclusive: 44.7 µM [inhibitor, partial curve].
With `OCCCn1c(-c2ccccc2)csc1=Nc1ccccc1` the Potency was inconclusive: 50.1 µM [inhibitor, partial curve].
`Cc1ccc(S(=O)(=O)N2CCCCC2)cc1NC(=O)COC(=O)CN1C(=O)NC2(CC(C)CC(C)(C)C2)C1=O` (stereo not given) was tested, and the Potency was “inactive”.
With `N#CC(=C=[N-])c1nc2ccccc2nc1-[n+]1cccc(NC(=O)c2cccs2)c1` the Potency was “inactive”.
In the case of `COC(=O)c1ccc(N)c(N=CC2=C(O)CC(C)(C)CC2=O)c1`, the Potency is reported as inconclusive: 39.8 µM [inhibitor, partial curve].
`CC(=O)/C(=C/c1ccccc1)C(=O)Nc1ccccc1C` was tested, and the Potency was “inactive”.
With `COc1ccc(-c2noc(N(c3cccc(Cl)c3)c3nc(-c4ccc(OC)c(OC)c4)no3)n2)cc1OC` the Potency was “inactive”.
With `O=S(=O)(c1ccc2nc(-c3ccco3)c(-c3ccco3)nc2c1)N1CCOCC1` the Potency was active: 79.4 µM.
In the case of `CC(Oc1ccc2c(-c3ccccc3)cc(=O)oc2c1)C(=O)NC(Cc1c[nH]c2ccc(O)cc12)C(=O)O` (stereo not given), the Potency is reported as inconclusive: 89.1 µM [inhibitor, single point].
With `NS(=O)(=O)c1ccc(-c2ccc(/C=N/NC(=O)c3ccccc3O)o2)cc1` the Potency was “inactive”.
With `CCc1ccc2c(c1)NC(c1ccc(C)cc1)=NC(c1cccs1)=N2` the Potency was active: 44.7 µM.
With `O=S(=O)(/C=C/c1ccccc1)N1CCN(Cc2ccc3c(c2)OCO3)CC1` the Potency was inconclusive: 89.1 µM [inhibitor, partial curve].
For `O=C(Nc1nnc(S(=O)(=O)N2CCOCC2)s1)c1ccccc1F`, the Potency was “inactive”.
In the case of `COc1ccc(C2/C=C\CNCC(=O)N2Cc2ccc(F)cc2)cc1` (stereo not given), the Potency is reported as “inactive”.
With `COc1ccc(/C=C/C(=O)Nc2sc(C)c(C)c2C(=O)O)cc1` the Potency was inconclusive: 100 µM [inhibitor, single point].
In the case of `O=C(Nc1cccc2cccnc12)c1ccc(Br)cc1`, the Potency is reported as “inactive”.
With `COc1ccccc1C1=NOC(C)(c2sc(-c3ccccc3)nc2C)C1` (stereo not given) the Potency was “inactive”.
For `Cc1ccc(S(=O)(=O)Nc2cc3c(cc2C)n(C)c(=O)c(=O)n3C)c(C)c1`, the Potency was “inactive”.
`Cc1ccc(S(=O)(=O)NCC(c2ccc3c(c2)OCO3)N2CCN(c3ccccc3)CC2)cc1` (stereo not given) was tested, and the Potency was inconclusive: 14.1 µM [inhibitor, full curve, poor fit].
For `COc1ccc(CCNC(=O)c2c(C)oc3ncnc(N4CCOCC4)c23)c(OC)c1`, the Potency was “inactive”.
`COc1ccc(C(=O)NCCc2cn3ccccc3n2)cc1` was tested, and the activity change, negative = inhibition was inactive: -7.35% [at 11.4 µM].
In the case of `O=C(CSCc1cc(=O)n2nc(C3CC3)sc2n1)Nc1ccccc1Cl`, the Potency is reported as “inactive”.
With `O=C1CCc2cc(S(=O)(=O)Nc3cc(F)cc(Cl)c3)c(F)cc2N1` the Potency was “inactive”.
`Cc1nc(N)nc(N(C)c2ccccc2)c1Br` was tested, and the Potency was “inactive”.
For `CN(Cc1ccc(F)cc1)S(=O)(=O)c1nnc(NC(=O)c2ccccc2Cl)s1`, the Potency was “inactive”.
For `COc1ccc(NC(=O)C(c2cc3c(cc2[N+](=O)[O-])OCO3)N(C)c2ccccc2)cc1` (stereo not given), the Potency was inconclusive: 31.6 µM [inhibitor, partial curve].
In the case of `COc1ccc(N2CCN(CC(=O)c3ccccc3)CC2)cc1`, the Potency is reported as inconclusive: 89.1 µM [inhibitor, partial curve, poor fit].
`Cn1c(=O)cc2c3c(c(N4CCCCC4)ccc31)C(=O)c1ccccc1-2` was tested, and the Potency was active: 35.5 µM.
For `CCOC(=O)C1=C(COC(=O)c2ccc(Br)c(S(=O)(=O)N3CCOCC3)c2)NC(=O)NC1C` (stereo not given), the Potency was “inactive”.
`CC(C)c1ccc(NC(=O)C[n+]2ccn(C3=C([O-])c4ccccc4C3=O)c2)cc1` was tested, and the Potency was inconclusive: 44.7 µM [inhibitor, partial curve].
For `CCOCCn1c(CN(Cc2ccccc2)Cc2ccccc2)nc2c1c(=O)n(C)c(=O)n2C`, the Potency was inconclusive: 100 µM [inhibitor, partial curve].
In the case of `CC(O)C(NC(=O)OCc1ccccc1)C(=O)OCc1ccccc1` (stereo not given), the Potency is reported as “inactive”.
With `CNc1nc(=O)n(C2CCCO2)cc1C` (stereo not given) the Potency was “inactive”.
With `CCOC(=O)c1ccc(N2Cc3ccccc3C2=N)cc1` the Potency was “inactive”.
In the case of `CC(=O)Oc1cccc(N2C(=O)C3C4C=CC(C4=C(C)C)C3C2=O)c1` (stereo not given), the Potency is reported as inconclusive: 39.8 µM [inhibitor, single point].
`CNC(=S)N(CCc1c(C)[nH]c2ccc(C)cc12)Cc1cccs1` was tested, and the Potency was inconclusive: 79.4 µM [inhibitor, partial curve].
In the case of `NS(=O)(=O)c1ccc(CCNC(=O)Cn2c(-c3cccs3)cc3ccccc32)cc1`, the Potency is reported as “inactive”.
For `CCNC(=S)N(CCc1c(C)[nH]c2ccc(Cl)cc12)Cc1cccnc1`, the Potency was inconclusive: 12.6 µM [inhibitor, single point].
In the case of `O=C1CSC(=S)N1/N=C/c1cc(Br)c(O)c(Br)c1`, the Potency is reported as active: 15.8 µM.
With `CCOC(=O)c1c(C)[nH]c(C)c1C(=O)COC(=O)CCOc1ccccc1OC` the Potency was active: 79.4 µM.
With `O=Cc1cc2ccccc2nc1SCCCF` the Potency was “inactive”.
For `CC1CCCN(CCOCCOc2ccccc2-c2ccccc2)C1` (stereo not given), the Potency was active: 20 µM.
For `N#Cc1cnc2c(-c3ccccc3)c(-c3ccccc3)nn2c1N`, the Potency was inconclusive: 15.8 µM [inhibitor, partial curve].
With `COc1cc(/C=C2\SC(=S)N(NS(=O)(=O)c3ccccc3)C2=O)cc(OC)c1OC` the Potency was inconclusive: 63.1 µM [inhibitor, partial curve].
In the case of `COc1ccc(-c2nc(CS(=O)CC(=O)NC3CCCCC3C)c(C)o2)cc1` (stereo not given), the Potency is reported as “inactive”.
For `C=CCN1CCN(C(c2ccccc2)c2nnnn2CCC(C)C)CC1` (stereo not given), the Potency was active: 3.16 µM.
For `COCCNC(=O)/C(C#N)=C/c1ccc(O)cc1`, the Potency was “inactive”.
In the case of `CCOc1ccccc1-c1cc(C(=O)Nc2ccc(C(=O)O)cc2)c2ccccc2n1`, the Potency is reported as inconclusive: 79.4 µM [inhibitor, partial curve].
`COc1ccccc1C1Nc2c(sc3nc(C)cc(C)c23)C(=O)N1c1ccccc1` (stereo not given) was tested, and the Potency was “inactive”.
`CCN1CCN(c2nc(Nc3ccc(C)c(C)c3)nc(N)c2[N+](=O)[O-])CC1` was tested, and the Potency was inconclusive: 50.1 µM [inhibitor, partial curve].
For `CCN1C(=O)[C@H]2[C@@H](c3ccc(SC4CCCCC4)c(OC)c3)N3CCCC[C@@]3(C(=O)OC)[C@H]2C1=O`, the Potency was inconclusive: 89.1 µM [inhibitor, partial curve, poor fit].
`C=CC[C@]12CCc3ccccc3C1N(c1ccc(C(=O)OCC)cc1)C2=O` (stereo not given in full) was tested, and the Potency was “inactive”.
In the case of `COCCNC(=S)Nc1ccc(N2CCCCC2)cc1`, the Potency is reported as inconclusive: 50.1 µM [inhibitor, partial curve].
`CCCN(CC(=O)Nc1ccccc1C)C(=O)Cc1n[nH]c(=O)c2ccccc12` was tested, and the Potency was inconclusive: 100 µM [inhibitor, single point].
In the case of `Cc1cccc(N2CCN(S(=O)(=O)c3ccc(-c4cc(C(F)(F)F)on4)s3)CC2)c1C`, the Potency is reported as “inactive”.
For `COc1cc2c(cc1OC)CN(C1CC(=O)N(c3c(C)cccc3C)C1=O)CC2` (stereo not given), the Potency was “inactive”.
In the case of `NC(Cc1c[nH]c2ccc(OCc3ccccc3)cc12)C(=O)O` (stereo not given), the Potency is reported as inconclusive: 35.5 µM [inhibitor, partial curve].
In the case of `CCOc1cc(/C=C2/NC(=O)N(CC(=O)Nc3cccc(C)c3)C2=O)ccc1OCC(N)=O`, the Potency is reported as active: 56.2 µM.
`Cn1c(=O)c2c(nc(CN3CCOCC3)n2CCCO)n(C)c1=O` was tested, and the Potency was “inactive”.
`Oc1ccc2ccccc2c1CNc1ccccc1` was tested, and the Potency was inconclusive: 11.2 µM [inhibitor, full curve].
